Assay results published in PubChem BioAssay (NCI).
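Assay format: 96-well plates, 48-hour exposure. At the GI50, growth is halved. TGI marks complete inhibition of growth.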 Numbered stars: 1 amine (or outer) side, 2 acyl side, 3 side chain; on linkers, the order of the positions; unused ones are H or OH. Square brackets hold non-standard residues; d marks the D form. Peptide text beside a SMILES is read from it. * marks the point of attachment. X9 = C/C=C/CC(C)C(O)[C@H](N[*:1])C(=O)[*:2]; Decanoyl = CCCCCCCCCC(=O)*; Leu(ol) = CC(C)C[C@H](N)CO; Iva = CC[C@](C)(N)C(=O)O; Aib = CC(C)(N)C(=O)O

tested on: NCI-H322M lung; assay: NCI anticancer screen, dose series, 48 h

In order of rising GI50:
1. C/C=C/CC(C)C(O)[C@H](NC(=O)[C@@H]1CCCN1C(=O)C(C)(C)NC(=O)CCCCCCCCC)C(=O)N[C@@](C)(CC)C(=O)N[C@@H](CCC(N)=O)C(=O)N[C@H](CCC(N)=O)C(=O)NC(C)(C)C(=O)N[C@@](C)(CC)C(=O)N[C@@H](CCC(N)=O)C(=O)N[C@H](CC(C)C)C(=O)N[C@H](CO)CC(C)C (stereo partly drawn) (Decanoyl-[Aib]P[X9][Iva]Q[dQ][Aib][Iva]Q[dL][Leu(ol)])  312 nM
2. Cc1[nH]c(C(=O)Nc2ccc(S(=O)(=O)N3CCCCC3)cc2OCCOCCOCCOCCOCCOCCOCCOCCOCCOc2cc(S(=O)(=O)N3CCCCC3)ccc2NC(=O)c2[nH]c(C)c3c2CCCCC3=O)c2c1C(=O)CCCC2  1010 nM
3. CN1CCN(c2ccc(Nc3nc(NCCNS(=O)(=O)c4ccc5ccccc5c4)c4sccc4n3)cc2)CC1  13300 nM

Going from `CN1CCN(c2ccc(Nc3nc(NCCNS(=O)(=O)c4ccc5ccccc5c4)c4sccc4n3)cc2)CC1` to `Cc1[nH]c(C(=O)Nc2ccc(S(=O)(=O)N3CCCCC3)cc2OCCOCCOCCOCCOCCOCCOCCOCCOCCOc2cc(S(=O)(=O)N3CCCCC3)ccc2NC(=O)c2[nH]c(C)c3c2CCCCC3=O)c2c1C(=O)CCCC2`, the TGI rises from 26900 nM to greater than 100000 nM.

In the case of `C/C=C/CC(C)C(O)[C@H](NC(=O)[C@@H]1CCCN1C(=O)C(C)(C)NC(=O)CCCCCCCCC)C(=O)N[C@@](C)(CC)C(=O)N[C@@H](CCC(N)=O)C(=O)N[C@H](CCC(N)=O)C(=O)NC(C)(C)C(=O)N[C@@](C)(CC)C(=O)N[C@@H](CCC(N)=O)C(=O)N[C@H](CC(C)C)C(=O)N[C@H](CO)CC(C)C` (stereo partly drawn) (Decanoyl-[Aib]P[X9][Iva]Q[dQ][Aib][Iva]Q[dL][Leu(ol)]), the TGI is reported as 1230 nM.
